PubChem BioAssay (NCATS)
Inconclusive means that the source gave no clear call. Such entries were picked first, then a sample of the others. For part of these data: No potency is given beside an inconclusive call; the fits are too rough. Active and inactive are the calls of the source. Unless noted, calls come from the whole dose curve; as a rule, active = well fitted curve in the direction sought with a large enough effect; inconclusive = small, poorly fitted or top-dose-only effect, or another doubt; inactive = no such curve, though single readings can be large; an effect the other way counts as inactive or inconclusive.

Experiments:
[1] = biological target: Cytochrome P450 2C9 (Homo sapiens) (UniProt P11712); test: Cytochrome P450 family 2 subfamily C member 9 (CYP2C9) small molecule antagonists: luciferase biochemical (cell-free) qHTS assay (AID 1645842; active = well fitted curve in the direction sought with a large enough effect in the repeat runs; inconclusive = weak or mixed curves; inactive = no such curve, though single readings can be large; an effect the other way counts as inactive or inconclusive; note: potency is the fitted concentration of half-maximal effect; nearly all actives have a fitted effect of over 55% in size)
UniProt P11712, sequence (P11712 whole entry, looked up): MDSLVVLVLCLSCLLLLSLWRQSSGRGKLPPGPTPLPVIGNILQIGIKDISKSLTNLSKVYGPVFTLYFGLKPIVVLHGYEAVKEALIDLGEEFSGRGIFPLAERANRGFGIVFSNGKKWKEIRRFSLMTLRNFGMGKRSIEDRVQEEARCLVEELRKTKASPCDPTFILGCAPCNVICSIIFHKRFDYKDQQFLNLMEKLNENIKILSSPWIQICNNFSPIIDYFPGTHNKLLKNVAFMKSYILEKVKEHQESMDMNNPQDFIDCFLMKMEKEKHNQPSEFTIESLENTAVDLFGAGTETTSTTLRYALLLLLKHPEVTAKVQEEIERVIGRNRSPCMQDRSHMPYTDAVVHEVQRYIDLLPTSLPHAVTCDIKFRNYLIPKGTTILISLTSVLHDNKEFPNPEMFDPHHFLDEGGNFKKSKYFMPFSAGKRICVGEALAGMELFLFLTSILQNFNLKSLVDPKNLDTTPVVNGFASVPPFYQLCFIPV
Summary of the method: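 P450-Glo CYP2C9 system: proluciferin substrate with enzyme in mix containing 0.4% BSA, 10 min at room temperature, then NADPH regeneration solution added and incubated 1 h at 37C. Detection reagent stopped reaction; luminescence read after 20 min as RLU.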

[2] = AP1 Signaling Pathway (AID 357; active = well fitted curve in either direction with a large enough effect, not every such curve was filed as active; inconclusive = small, poorly fitted or top-dose-only effect, or another doubt;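 note: ME-180 reporter cells stimulated with EGF at its EC50 level; top concentration of the series differs between compounds; % is set by controls: 0 for no effect and ±100 for the full control effect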); settings: ME-180 AP-1-bla reporter, EGF-induced, beta-lactamase ratio, 5 h; at 7.69 µM (top of the series) unless noted
Summary of the method: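 First, ME-180 AP-1-bla cells were cultured overnight at 37 °C in low-serum Opti-MEM. Next, titrated compounds with EC50 EGF were incubated 5 hours. Finally, CCF4 was added for 2.5 hours and the 460/530 nm ratio recorded.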

[3] = biological target: 3',5'-cyclic-AMP phosphodiesterase 4B (Homo sapiens) (UniProt Q07343); test: qHTS Assay for Inhibitors of PDE-IV (AID 607; active = well fitted activation curve with a large enough effect in the main read-out, with a control signal flat, not every such curve was filed as active; inconclusive = small, poorly fitted or top-dose-only effect, or effect the other way, or a change in a side signal; note: potency is the fitted concentration of half-maximal effect); settings: HEK293 ACTOne CNG channel cells, membrane potential fluorescence; activation (PDE inhibition): at 22.9 µM (top of the series)
UniProt Q07343, sequence (Q07343 whole entry, looked up): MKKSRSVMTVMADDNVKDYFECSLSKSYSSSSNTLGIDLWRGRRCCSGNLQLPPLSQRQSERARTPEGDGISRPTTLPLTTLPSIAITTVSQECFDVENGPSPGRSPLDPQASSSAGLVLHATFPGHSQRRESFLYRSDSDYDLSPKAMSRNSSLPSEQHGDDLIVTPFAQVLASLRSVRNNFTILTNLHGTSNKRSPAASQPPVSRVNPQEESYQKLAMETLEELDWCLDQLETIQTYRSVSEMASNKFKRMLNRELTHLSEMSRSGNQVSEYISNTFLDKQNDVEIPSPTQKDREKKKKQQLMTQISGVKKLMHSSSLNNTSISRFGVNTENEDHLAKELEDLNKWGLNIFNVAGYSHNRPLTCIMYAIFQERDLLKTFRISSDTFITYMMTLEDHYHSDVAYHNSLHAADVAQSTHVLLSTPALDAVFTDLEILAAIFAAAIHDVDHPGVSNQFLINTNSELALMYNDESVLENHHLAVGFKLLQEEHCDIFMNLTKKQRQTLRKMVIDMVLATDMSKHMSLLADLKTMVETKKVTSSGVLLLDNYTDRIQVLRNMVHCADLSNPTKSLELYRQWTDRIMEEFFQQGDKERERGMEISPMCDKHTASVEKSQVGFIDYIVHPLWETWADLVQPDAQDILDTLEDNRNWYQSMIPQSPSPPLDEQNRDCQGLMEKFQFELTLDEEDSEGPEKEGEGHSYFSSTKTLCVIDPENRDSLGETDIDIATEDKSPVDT
Summary of the method: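 Cell-based read-out of cAMP via a modified cyclic nucleotide-gated channel and membrane potential dye (535/590 nm) in HEK293 cells expressing PDE4 endogenously. Compounds tested up to 22.9 uM final; 100 uM RO 20-1724 reference.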

[4] = qHTS Assay for Identification of Small Molecule Agonists for Hypoxia Response Element Signaling Pathway (AID 914; active = well fitted activation curve with a large enough effect in the signal ratio, with a control signal flat, not every such curve was filed as active; inconclusive = small, poorly fitted or top-dose-only effect, or effect the other way, or a change in a side signal; the % refers to the signal ratio; note: potency is the fitted concentration of half-maximal effect; for activation: top concentration of the series differs between compounds; % of control where 0% means no effect); settings: ME-180 HRE-bla reporter, beta-lactamase ratio, CoCl2, 17 h; activation: stronger effect = higher value
Summary of the method: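 HRE-bla ME-180 assay for agonist-like enhancement of an EC50 CoCl2 stimulus: 17 h at 37 degrees Celsius, CCF4 for 2.5 h, ratiometric 460/530 nm signal converted to %Activity and fitted to AC50.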

[5] = qHTS Assay for Lipid Storage Modulators (AID 1519; calls by dose curve; note: potency is the fitted concentration of half-maximal effect; for activity change, negative = inhibition: % is set by controls: 0 for no effect and ±100 for the full control effect); settings: Drosophila S3 cells, BODIPY lipid droplet/cell ratio, laser cytometry, cells loaded with oleic acid; activity change, negative = inhibition: at 57.5 µM (top of the series) unless noted
Summary of the method: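 Cells seeded at 5,000 per well were treated with compounds over a concentration series and loaded with oleic acid (400 uM, as added). Lipid droplet fluorescence (488 nm excitation, 500-530 nm channel) was read by laser-scanning cytometry and normalized to 20 uM Triacsin C.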

[6] = biological target: Dual specificity protein kinase CLK4 (Homo sapiens) (UniProt Q9HAZ1); test: qHTS Assay for Inhibitors of CDC-like Kinase 4 (Kinase-Glo Assay) (AID 1770); note: nearly all actives have a fitted effect of over 65% in size; note: potency is the fitted concentration of half-maximal effect
UniProt Q9HAZ1, sequence (Q9HAZ1 whole entry, looked up): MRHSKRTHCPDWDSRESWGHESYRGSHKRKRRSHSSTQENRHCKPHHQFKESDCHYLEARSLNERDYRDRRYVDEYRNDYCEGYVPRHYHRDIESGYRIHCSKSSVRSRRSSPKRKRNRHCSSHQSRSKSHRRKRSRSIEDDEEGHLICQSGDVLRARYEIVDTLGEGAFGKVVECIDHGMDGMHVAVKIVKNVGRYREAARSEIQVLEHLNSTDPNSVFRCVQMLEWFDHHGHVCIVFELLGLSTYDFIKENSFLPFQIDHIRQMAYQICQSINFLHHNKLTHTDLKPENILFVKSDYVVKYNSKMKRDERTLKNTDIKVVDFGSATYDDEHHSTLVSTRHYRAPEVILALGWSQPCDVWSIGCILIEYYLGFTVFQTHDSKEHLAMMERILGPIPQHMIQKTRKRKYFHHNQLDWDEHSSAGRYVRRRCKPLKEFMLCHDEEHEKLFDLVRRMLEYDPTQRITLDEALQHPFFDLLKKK
Summary of the method: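 Clk4 25 nM, RS peptide 100 uM, ATP 1 uM, pH 7.5 Tris, 10 mM MgCl2, 2.5 mM DTT; 4.5 h RT; ATP depletion read by Kinase-Glo luminescence.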

[7] = biological target: Dual specificity protein kinase CLK4 (Homo sapiens) (UniProt Q9HAZ1); test: qHTS Assay for Inhibitors of CDC-like Kinase 4 (ADP-Glo Assay) (AID 1771); note: nearly all actives have a fitted effect of over 70% in size; note: potency is the fitted concentration of half-maximal effect
Summary of the method: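 ADP production was read by ADP-Glo luminescence after residual ATP depletion, following 1 h room-temperature reaction of 25 nM Clk4, 1 uM ATP and 100 uM RS peptide with MgCl2, EGTA, DTT and Triton X-100.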

[8] = biological target: Ubiquitin carboxyl-terminal hydrolase 1 (Homo sapiens) (UniProt O94782); test: Inhibitors of USP1/UAF1: Pilot qHTS (AID 504865); note: potency is the fitted concentration of half-maximal effect;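 note: rhodamine fluorescence freed from ubiquitin-rhodamine substrate followed over time; nearly all actives have a fitted effect of over 35% in size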
UniProt O94782, sequence (O94782 whole entry, looked up): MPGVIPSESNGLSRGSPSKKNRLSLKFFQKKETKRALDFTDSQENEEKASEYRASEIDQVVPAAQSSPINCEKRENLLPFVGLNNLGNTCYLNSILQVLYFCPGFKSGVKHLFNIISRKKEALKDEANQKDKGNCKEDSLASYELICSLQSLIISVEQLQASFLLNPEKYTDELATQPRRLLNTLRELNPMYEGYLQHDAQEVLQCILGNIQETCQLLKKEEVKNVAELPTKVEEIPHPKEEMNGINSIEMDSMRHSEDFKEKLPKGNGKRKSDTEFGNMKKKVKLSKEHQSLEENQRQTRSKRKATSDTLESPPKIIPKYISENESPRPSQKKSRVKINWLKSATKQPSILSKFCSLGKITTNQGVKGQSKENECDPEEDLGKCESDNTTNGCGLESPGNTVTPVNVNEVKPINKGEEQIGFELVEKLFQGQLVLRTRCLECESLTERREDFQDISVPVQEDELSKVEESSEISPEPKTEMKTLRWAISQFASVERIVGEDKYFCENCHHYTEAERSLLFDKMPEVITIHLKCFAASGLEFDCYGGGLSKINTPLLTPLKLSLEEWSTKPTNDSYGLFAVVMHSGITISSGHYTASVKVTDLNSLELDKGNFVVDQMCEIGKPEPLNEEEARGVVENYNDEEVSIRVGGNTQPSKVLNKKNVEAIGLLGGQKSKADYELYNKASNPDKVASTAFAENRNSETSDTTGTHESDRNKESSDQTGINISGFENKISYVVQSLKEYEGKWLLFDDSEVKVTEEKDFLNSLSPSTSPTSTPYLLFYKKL
Summary of the method: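 Enzyme-free wells gave the negative control, while test wells held 1nM USP1/UAF1 preincubated with compound for 15 min at room temperature. Ub-Rho at 150nM final started the reaction, and fluorescence at 480/540 nm was recorded kinetically.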

[9] = Primary qHTS for small molecule stabilizers of the endoplasmic reticulum resident proteome: Secreted ER Calcium Modulated Protein (SERCaMP) assay (AID 1508630); settings: SH-SY5Y GLuc-SERCaMP (Gaussia luciferase released on ER calcium loss) secretion, thapsigargin, luminescence; activity change, negative = inhibition: at 38.4 µM (top of the series) unless noted; note: potency is the fitted concentration of half-maximal effect
Summary of the method: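 The SH-SY5Y reporter protocol was run at 3 concentrations up to 38.3 uM (primary) or 11 concentrations (follow-up): 16 h compound, 100 nM thapsigargin for 4 h, then extracellular luciferase luminescence.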

[10] = biological target: Cytochrome P450 3A4 (Homo sapiens) (UniProt P08684); test: qHTS Assay for Inhibitors and Substrates of Cytochrome P450 3A4 (AID 884); settings: recombinant CYP3A4, Luciferin-PPXE luminescence; activity change, negative = inhibition: at 57.1 µM (top of the series); note: potency is the fitted concentration of half-maximal effect; nearly all actives have a fitted effect of over 50% in size
UniProt P08684, sequence (P08684 whole entry, looked up): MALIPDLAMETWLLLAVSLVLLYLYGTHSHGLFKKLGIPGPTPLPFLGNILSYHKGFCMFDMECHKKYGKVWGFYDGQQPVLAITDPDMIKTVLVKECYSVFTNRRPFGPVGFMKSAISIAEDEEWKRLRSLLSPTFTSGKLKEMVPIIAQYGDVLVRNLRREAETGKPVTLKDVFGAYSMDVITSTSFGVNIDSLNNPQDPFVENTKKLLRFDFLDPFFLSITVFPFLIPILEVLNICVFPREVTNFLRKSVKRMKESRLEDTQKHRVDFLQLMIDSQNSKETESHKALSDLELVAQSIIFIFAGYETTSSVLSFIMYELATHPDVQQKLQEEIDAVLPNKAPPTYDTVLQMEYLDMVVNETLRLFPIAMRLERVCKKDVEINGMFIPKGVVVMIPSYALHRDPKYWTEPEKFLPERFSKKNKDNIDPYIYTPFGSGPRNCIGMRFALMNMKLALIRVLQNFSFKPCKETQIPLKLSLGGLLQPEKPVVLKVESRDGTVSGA
Summary of the method: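 Luminescent readout of luciferin produced by CYP3A4 (20 nM) dealkylation of Luciferin-PPXE, 25 uM (its KM). NADPH-driven reaction ran 60 min at RT after 10 min compound preincubation; data scaled to 57 uM ketoconazole as 100% inhibition.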

[11] = biological target: Mitogen-activated protein kinase 10 (Mus musculus) (UniProt Q61831); test: JNK3 AlphaScreen Assay (AID 530; active = well fitted curve in either direction with a large enough effect, not every such curve was filed as active; inconclusive = small, poorly fitted or top-dose-only effect, or another doubt;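 note: kinase came from lysate of stimulated human HepG2 cells; signal reports phosphorylation of biotinylated GST-cJun 1-79 at Ser73 with 10 µM ATP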; note: potency is the fitted concentration of half-maximal effect); settings: JNK3 lysate, c-Jun phosphorylation; activity change, negative = inhibition: at 57.1 µM (top of the series)
Summary of the method: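 Phosphorylation of biotinylated GST-cJun(1-79) at Ser73 is measured by AlphaScreen proximity luminescence. Enzyme is JNK3 in HepG2 lysates activated with interleukin-1beta and tumor necrosis factor alpha; ATP is 10 uM final.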

[12] = Stat Signaling Pathway (AID 446; active = well fitted curve in either direction with a large enough effect, not every such curve was filed as active; inconclusive = small, poorly fitted or top-dose-only effect, or another doubt;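 note: ME-180 cervical cancer cells given 40 pM IL-6 alongside compound; SIE-controlled beta-lactamase reporter measured as 460/530 nm FRET emission ratio; top concentration of the series differs between compounds; % is set by controls: 0 for no effect and ±100 for the full control effect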); settings: ME-180 (cervical carcinoma) SIE beta-lactamase reporter, IL-6 stimulated, 5 h; at 7.69 µM (top of the series) unless noted
Summary of the method: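 FRET read-out (405 nm excitation, 460/530 nm emission) of a beta-lactamase reporter under a STAT-inducible element in ME-180 cervical carcinoma cells. Cells with compound receive 40 pM IL-6 for 5 h. Values are normalised to AC90 stimulation and AC90 JAK-inhibitor controls.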

[13] = NFAT Signaling Pathway (AID 444; active = well fitted curve in either direction with a large enough effect, not every such curve was filed as active; inconclusive = small, poorly fitted or top-dose-only effect, or another doubt;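 note: carbachol stimulus at about its EC50 of 1 µM final; % is set by controls: 0 for no effect and ±100 for the full control effect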); settings: Jurkat NFAT-bla M1, carbachol, beta-lactamase ratio, 5 h; at 7.69 µM (top of the series) unless noted
Summary of the method: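 Jurkat cells carrying an NFAT-driven β-lactamase reporter and co-transfected muscarinic M1 receptor were treated with compound plus carbachol (1 uM final, an EC50 level) for 5 h at 37 °C. CCF4 loading followed for 1 h at RT; 460/530 nm ratio gave %activity.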

[14] = biological target: Dual specificity protein kinase CLK4 (Homo sapiens) (UniProt Q9HAZ1); test: qHTS Assay for Inhibitors of CDC-like Kinase 4 (ADP-FP Assay) (AID 1795); note: potency is the fitted concentration of half-maximal effect;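 note: recombinant human CLK4 phosphorylating RS repeat peptide at 1 µM ATP; nearly all actives have a fitted effect of over 60% in size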
Summary of the method: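 Kinase activity was followed as ADP output, converted from fluorescence polarization with a calibration curve. Reactions ran one hour at low ATP (1 uM) with RS peptide substrate.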

[15] = biological target: Cytochrome P450 3A4 (Homo sapiens) (UniProt P08684); test: qHTS Assay for Activators of Cytochrome P450 3A4 (AID 885); note: potency is the fitted concentration of half-maximal effect; nearly all actives have a fitted effect of over 65% in size
Summary of the method: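 Luminescent readout of luciferin formed from 25 uM Luciferin-PPXE (KM level) by 20 nM CYP3A4 in 200 mM KPO4, with 60 min NADPH-driven reaction at room temperature after 10 min compound exposure. Ketoconazole (57 uM) defined 100% inhibition.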
Tags give direction and shape of the fitted curve or compound fluorescence and quenching.

## CC(C)c1cccc(O)c(=O)c1
[1]
  Potency: inconclusive [inhibitor, partial curve, poor fit]

## Cc1ccccc1-c1nc(NCc2cccs2)c2ccccc2n1
[2]
  activity change, negative = inhibition: inconclusive: 53.9% [activator]
[3]
  Potency: inconclusive [activator, partial curve]
[4]
  activation: inconclusive: -10.2%
[5]
  Potency: inactive
[6]
  Potency: inconclusive [falling, single point]
[7]
  Potency: inconclusive [falling, single point]
[8]
  Potency: active: 14.1 µM
[9]
  Potency: inactive

## CCNc1ncc2nc(-c3cccc(C#N)c3)c(=O)n(CCC#N)c2n1
[3]
  Potency: inconclusive [activator, partial curve]
[10]
  Potency: inconclusive [inhibitor, partial curve]
[5]
  Potency: inconclusive [falling, single point]
[6]
  Potency: inconclusive [falling, partial curve]
[7]
  Potency: inconclusive [falling, partial curve]
[9]
  Potency: inactive

## COc1ccc(CNc2ncnc3ccc(-c4ccoc4)cc23)c(OC)c1
[2]
  activity change, negative = inhibition: inconclusive: -49.4% [inhibitor]
[3]
  Potency: inconclusive [activator, single point]
[4]
  Potency: inconclusive [inhibitor, partial curve]
[5]
  Potency: inactive
[6]
  Potency: active: 0.708 µM
[8]
  Potency: inactive
[9]
  Potency: inconclusive [inhibitor, single point]

## CN(C)C(=O)c1ccc(-c2cncnc2N2CCNCC2)cc1
[11]
  Potency: inactive
[5]
  Potency: inactive
[6]
  Potency: inconclusive [falling, partial curve]
[7]
  Potency: inactive
[9]
  Potency: inactive

## COCCn1c(=O)c(CCc2ccccc2)nc2cnc(Oc3ccc(OC)cc3)nc21
[12]
  activity, negative = inhibition: inactive: -17%
[5]
  Potency: inactive
[7]
  Potency: inactive
[8]
  Potency: inactive
[9]
  Potency: inconclusive [inhibitor, single point]

## COc1ccc(CNc2nc(-c3ccc(N(C)C)cc3)nc3ccccc23)c(OC)c1
[13]
  activity change, negative = inhibition: inconclusive: -67.5% [inhibitor]
[10]
  Potency: inconclusive [inhibitor, partial curve]
[5]
  activity change, negative = inhibition: inconclusive: -42.3%
[7]
  Potency: inactive
[14]
  Potency: inactive
[9]
  Potency: inactive

## CN(Cc1ccco1)c1ncnc2ccc(-c3ccccc3C(F)(F)F)cc12
[3]
  Potency: inconclusive [activator, single point]
[5]
  Potency: inactive
[6]
  Potency: inconclusive [falling, partial curve]
[7]
  Potency: inconclusive [falling, single point]
[9]
  Potency: inactive

## Cc1cnc(CNc2ncnc3ccc(-c4ccccc4C)cc23)cn1
[5]
  activity change, negative = inhibition: inconclusive: 4.58%
[6]
  Potency: active: 28.2 µM
[14]
  Potency: inconclusive [falling, single point]
[9]
  Potency: inconclusive [inhibitor, single point]

## COc1ccc(CNc2ncncc2-c2ccoc2)c(OC)c1
[5]
  activity change, negative = inhibition: inconclusive: 6.24%
[6]
  Potency: inconclusive [falling, single point]
[7]
  Potency: inconclusive [falling, single point]
[9]
  Potency: inactive

## CN1CCN(c2ncnc3ccc(-c4ccccc4C(F)(F)F)cc23)CC1
[2]
  activity change, negative = inhibition: inconclusive: 60.4% [activator]
[4]
  Potency: inconclusive [inhibitor, partial curve]
[5]
  Potency: inconclusive [inhibitor, single point]
[6]
  Potency: inactive
[9]
  Potency: inconclusive [inhibitor, single point]

## Cc1nc2cnc(N3CCOCC3)nc2n(CCc2ccccc2)c1=O
[3]
  Potency: inconclusive [activator, partial curve]
[5]
  activity change, negative = inhibition: inconclusive: 0.789%
[6]
  Potency: inconclusive [falling, partial curve]
[7]
  Potency: inconclusive [falling, single point]
[9]
  Potency: inconclusive [inhibitor, single point]

## CC(=O)NCCNc1cc(-c2ccccc2C)ncn1
[13]
  activity change, negative = inhibition: inconclusive: 6.27% [activator]
[5]
  Potency: inactive
[7]
  Potency: inconclusive [falling, single point]
[9]
  Potency: inactive

## Cn1c(=O)c(-c2ccccc2)nc2cnc(N3CCOCC3)nc21
[11]
  Potency: inconclusive [activator, partial curve]
[15]
  Potency: inconclusive [activator, full curve, poor fit]
[5]
  activity change, negative = inhibition: inconclusive: 4.61%
[6]
  Potency: inactive
[14]
  Potency: inactive
[9]
  Potency: inconclusive [inhibitor, single point]

## COc1ncc2ncc(=O)n(C3CC3)c2n1
[3]
  Potency: active: 1.58 µM
[5]
  activity change, negative = inhibition: inconclusive: 6.37%
[6]
  Potency: inactive
[9]
  Potency: inactive
